# Reference: the supplement of paper PMC11417369
# The list shows a part of the results.
# System: PfSIP2 AP2 domain 1 (GST-tagged)
# Test: gcPBM binding intensity (ln(normalized median fluorescence intensity)); higher = stronger DNA binding
# Method in brief: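 The highest Masliner-normalised natural-log median intensity across replicate spots of either probe orientation is reported as binding intensity. GST-tagged P. falciparum DNA-binding domains expressed in E. coli were applied for 1 h to an Agilent 4 × 180k array of primer-extended double-stranded 36-bp intergenic genomic probes plus negative controls, and bound protein was detected with Alexa488 anti-GST antibody and scanned at 488 nm.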
row,Sequence,gcPBM binding intensity (ln)
1,AATTGTTAATGGTACGAACACACATATAAAGATGCA [CACACA_site2043],7
2,ATTTTATTTTATTAAGTGCAAAAAAAAAAAAAGAAA,8.24
3,ACCTCTCATATGTTATAAACAAAATGAAAATTTCAT [XGTACX_negctrl_site303],7.57
4,TGTACAATATAAGGAGCACACAAAAATGGATAAATA [CACACA_site8216],7.14
5,ATATGGCATAAAACATGTACATGTTCATAAATATAT [XGTACX_site1924],7.03
6,GCTAGTTCATAAAATTGTACAAAAAAAAAAAAAAAA [XGTACX_site2223],7.07
7,TTTTTTATCTAATATTTTATAATTTTCATAAATTTG [GTGCAC_negctrl_site534],6.78
8,AAAAAAAAAAAAAAAAGTACATGCCATATATTTTCA [XGTACX_site4580],8.03
9,AAATAATCTATACACAACGTATAAGAATAATATATG [TGCATGCA_negctrl_site422],6.9
10,AATAGAAACATTTTACATGTATATATAATTTTTTTT [XGTACX_negctrl_site190],6.71
11,TAAATAATGTTAAACACACATACCGATATATAATTA [CACACA_site2711],6.82
12,TATATATAAGAAAAAAGTACAGATATATATATATTC [XGTACX_site4788],7.25
13,TATACAGACAGACACACACACATATATATATATATA [CACACA_site1734],9.12
14,TTTTAAGAAAAAAAATGTACACATGAAAATAGTGAA [XGTACX_site5898],7.05
15,TGTTATATTATAACTACACACGTATTATGTTATATC [CACACA_site839],7.08
16,AAATTTTCACTTCAAAAACACACGTATTTTTTTCCT [CACACA_site3813],6.99
17,TTATATTTATATTTATGTACATATTTTGTGTGAAAA [XGTACX_site2367],7.27
18,CCTAAATAATATCTATCACACACGCATATATACATA [CACACA_site8838],7.03
19,TCTATTTATATGTATTGTACAATATAGATGTGTATT [XGTACX_site5646],7.22
20,GTAATACACAGACACACACACATACACATATTTATA [CACACA_site7313],7.32
21,AAATTAAAAATAATTACACACATAGAAAAATTATAT [CACACA_site2275],6.99
22,TTCTATATATAATATTGTACTTAATTATTTTATTTT [XGTACX_site2701],6.91
23,AGTGTATATAGAAACATACACACATATTAATTTTAC [CACACA_site3127],6.84

row,Sequence,gcPBM binding intensity (ln)
1,TAGCTGTTCAAAAAATGTACATATATAATATATATA [XGTACX_site5842],7.49
2,ATATATATGCATTCAAGTACAAAAATATATGTTAAA [XGTACX_site910],7.11
3,ATATAATAACATAACACACACATGTATTTATAGGTG [CACACA_site359],6.97
4,ACATTATAATATTATTGTACTATATATATAATATAT [XGTACX_site2291],7.28
5,AAAAAAAAAAAAAAAACACACATATATATATAATAT [CACACA_site1159],7.42
6,GATAATCAGAATGGGGTGCAAAGAAAAAAAAAAAAA,11.3
7,ATAATAAGAAAAAAAAAAAAAAAAAAAAAAAAAAAA [TGCATGCA_negctrl_site377],6.9
8,ATATTGAAATGTTAATAGAAATATATGGTTAAATTG [XGTACX_negctrl_site212],6.87
9,ATGTATATAAATAGGTGTACATATAAGGTGTTAAGC [XGTACX_site5465],7.75
10,TACACAAACGTTATACGTACACAGGTTTTTCTTTTA [XGTACX_site5427],6.82
11,ACATAAGAATTTTTATGTACTCATAATATTTTATAT [XGTACX_site2398],7.17
12,GAAATATTTGTAAAAACATGCATGGTACTTTTAAAA [TGCATGCA_site6],6.96
13,TACATACTAAAAAAATGTACTTGTATTGTTTTTTTA [XGTACX_site8357],6.84
14,TATATATATATATACACATGCAAAAATTTTTAATTT [TGCATGCA_site82],9.62
15,TTTCTATATGGATTTGCACACATAAAAATGCTTATA [CACACA_site8751],7.2
16,TTATTTAACGTATTCTCACACATATATATATATAAT [CACACA_site5226],7.22
17,TCTTTAATGATGTGTACACAAGAAAACATTGTTAAG [CACACA_site5299],7.13
18,TAGAAGCATCATTTTACACACATGCAAATGTAAAAT [CACACA_site1893],6.77
19,AAAAATAAGAGCGTAGCACACACGCATTTTATAAAT [CACACA_site8147],6.67
20,TTATTGAACTTTTATAAAACCTGTATTATTATCTCT [CACACA_negctrl_site767],6.9
21,TTATATTAATAATAAAGTACAAAAAATCATATATAA [XGTACX_site799],7.07
22,TATTTCTTATTACATACACACATATACATATATGAC [CACACA_site3201],7.17
